Assay results from the supplement of paper PMC3334620.
The full ranking holds about 33,000 sequences; the median of “E-score (-0.5 to 0.5)” is about -0.04, and the highest 2% start at about 0.36. Some of the results follow.

Each sequence was assayed against T1, Hmlalpha2 (UniProt P0CY09) (assay: PBM E-score (8-mer binding enrichment) (E-score (-0.5 to 0.5)); higher = stronger / more preferred TF binding; most listed sequences are background and not binding sites). Conditions: protein concentration: 200 nM; construct: GST-full length.
T1 sequence: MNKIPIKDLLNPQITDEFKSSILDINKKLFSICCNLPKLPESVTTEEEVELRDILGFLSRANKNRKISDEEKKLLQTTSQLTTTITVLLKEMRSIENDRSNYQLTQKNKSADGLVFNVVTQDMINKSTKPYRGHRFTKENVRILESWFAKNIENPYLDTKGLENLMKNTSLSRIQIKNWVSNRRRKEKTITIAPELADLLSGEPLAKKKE
Experimental: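 Universal 'all 10-mer' protein binding microarrays (Agilent AMADID 015681) probed with GST-tagged S. cerevisiae TFs (full-length or DBD) made by in vitro transcription/translation (PURExpress), about 100-200 nM. Bound TF was detected with fluorescent anti-GST. Each ungapped 8-mer (which stands for itself and its reverse complement) is scored by the PBM enrichment score (E-score), a modified Wilcoxon-Mann-Whitney statistic from -0.5 to +0.5, computed with the Universal PBM Analysis Suite. Scale: above 0.35 generally sequence-specific binding.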
For ATAATGTA, the “PBM E-score” value was 0.273. In the case of ACCCGACC, the “PBM E-score” value is reported as -0.145. GATCGACC was tested, and the “PBM E-score” value was -0.186. CAGTCATA was tested, and the “PBM E-score” value was -0.177. For TAGGGCAA, the “PBM E-score” value was -0.0956. In the case of CCGCTTGA, the “PBM E-score” value is reported as -0.111. In the case of GCCCTCCC, the “PBM E-score” value is reported as -0.328. AGCGATAT was tested, and the “PBM E-score” value was 0.0863. For CAAAATAC, the “PBM E-score” value was 0.266. In the case of CCAATTGA, the “PBM E-score” value is reported as -0.0994. With GTTATTCA the “PBM E-score” value was 0.296. ATGCACTA was tested, and the “PBM E-score” value was 0.131. For GACCCAAA, the “PBM E-score” value was -0.148. For GGCAAGAC, the “PBM E-score” value was -0.237. For CGCCACCC, the “PBM E-score” value was -0.0656. TAAGTGAA was tested, and the “PBM E-score” value was 0.0646. With ATCACCTG the “PBM E-score” value was -0.0735. In the case of ACTCTGCA, the “PBM E-score” value is reported as 0.00961. With CAGATCGG the “PBM E-score” value was -0.0892. In the case of GCGAGCCA, the “PBM E-score” value is reported as -0.181. For CGTACAGC, the “PBM E-score” value was 0.0305. With ATTATTGG the “PBM E-score” value was -0.0194. For CCTAGATC, the “PBM E-score” value was -0.174. With GCTAAAGC the “PBM E-score” value was 0.00412. In the case of ATGGACAT, the “PBM E-score” value is reported as 0.168. In the case of GTAGTGTA, the “PBM E-score” value is reported as 0.279. For CCTCTTTA, the “PBM E-score” value was -0.104. In the case of CCCGTAAG, the “PBM E-score” value is reported as 0.0106. For ACCATTTC, the “PBM E-score” value was -0.0551. AACCCATC was tested, and the “PBM E-score” value was -0.0706. In the case of CAGCAACC, the “PBM E-score” value is reported as -0.15. TACTATAA was tested, and the “PBM E-score” value was 0.171. For CAGGCGCG, the “PBM E-score” value was -0.102. CCGCTCCG was tested, and the “PBM E-score” value was -0.161. ACTCGGAG was tested, and the “PBM E-score” value was -0.158. For ACCCATAT, the “PBM E-score” value was -0.0262. For GTTTACGA, the “PBM E-score” value was 0.282. AACGATGA was tested, and the “PBM E-score” value was -0.0827. For CGAGAGCG, the “PBM E-score” value was -0.141. In the case of AACGCTTG, the “PBM E-score” value is reported as 0.0808. For TATCAAGA, the “PBM E-score” value was 0.101. ACCTGATC was tested, and the “PBM E-score” value was -0.171. ACAGAACC was tested, and the “PBM E-score” value was -0.083. In the case of AAACCCTC, the “PBM E-score” value is reported as -0.0233. In the case of TGTATAAA, the “PBM E-score” value is reported as 0.342. In the case of GCACGGTA, the “PBM E-score” value is reported as -0.0709. In the case of CTGACTCC, the “PBM E-score” value is reported as -0.311. In the case of ACGAGAAC, the “PBM E-score” value is reported as 0.118. For CTCTTAAC, the “PBM E-score” value was 0.2. ACATTTAA was tested, and the “PBM E-score” value was 0.301. In the case of ATGTACGC, the “PBM E-score” value is reported as 0.316. In the case of ACGATATG, the “PBM E-score” value is reported as 0.0821. In the case of GCCCGCAC, the “PBM E-score” value is reported as -0.145. With ATTCCCAC the “PBM E-score” value was -0.125. GCAATCAC was tested, and the “PBM E-score” value was -0.049. AATGAGGC was tested, and the “PBM E-score” value was 0.0163. TAGGCAAA was tested, and the “PBM E-score” value was -0.142. In the case of AAAGGCGG, the “PBM E-score” value is reported as -0.151. In the case of GCACTTCC, the “PBM E-score” value is reported as -0.245. In the case of GAACAGGC, the “PBM E-score” value is reported as -0.0405. With CCTCCGAA the “PBM E-score” value was -0.251. For CTGATTGA, the “PBM E-score” value was -0.0342. In the case of GCCCGGAC, the “PBM E-score” value is reported as -0.23. For AAACCACT, the “PBM E-score” value was -0.0785. With AATAGCGA the “PBM E-score” value was 0.231. With ACTCGCTA the “PBM E-score” value was 0.0329. AATACCTG was tested, and the “PBM E-score” value was -0.0316. For AATAGGTC, the “PBM E-score” value was 0.0472. ACCGATTA was tested, and the “PBM E-score” value was 0.123. CGTCACAG was tested, and the “PBM E-score” value was -0.204. ATAAGCGA was tested, and the “PBM E-score” value was 0.102. For AGTGTGAT, the “PBM E-score” value was 0.0862. ACGCACAC was tested, and the “PBM E-score” value was 0.224. For CGGGGAGC, the “PBM E-score” value was -0.251. In the case of CGCACGAC, the “PBM E-score” value is reported as 0.0246. With ATTGCACA the “PBM E-score” value was 0.134. GAGAAGTA was tested, and the “PBM E-score” value was -0.0622. For AACCGTTC, the “PBM E-score” value was -0.0917. In the case of AGGTGGGC, the “PBM E-score” value is reported as -0.148. For AGTCGAAT, the “PBM E-score” value was -0.234. ACCCACCT was tested, and the “PBM E-score” value was -0.287. For CCTGTCAC, the “PBM E-score” value was -0.135. In the case of ATTTCGTC, the “PBM E-score” value is reported as 0.0444. With TATAACAA the “PBM E-score” value was 0.254. For GTGAAGTA, the “PBM E-score” value was 0.0578. In the case of CCCGAGGG, the “PBM E-score” value is reported as -0.197. CCTGTACC was tested, and the “PBM E-score” value was -0.107. In the case of AATGAGAA, the “PBM E-score” value is reported as 0.0317. For CCGACAAC, the “PBM E-score” value was -0.00545. AACTTAGT was tested, and the “PBM E-score” value was 0.0856. In the case of ATCATGTG, the “PBM E-score” value is reported as 0.209. CGGGATAC was tested, and the “PBM E-score” value was -0.16. With GGCTCCCC the “PBM E-score” value was -0.389. ATAATGCG was tested, and the “PBM E-score” value was 0.177. For ACTGATCG, the “PBM E-score” value was 0.00936. GCCTGGGA was tested, and the “PBM E-score” value was -0.143. With AAACTACA the “PBM E-score” value was 0.362. For ACGGCAGA, the “PBM E-score” value was -0.12. In the case of CATCGAAC, the “PBM E-score” value is reported as -0.161. With CTCCCAGA the “PBM E-score” value was -0.181. With ACAGAAGC the “PBM E-score” value was -0.0384. For GCCATGGC, the “PBM E-score” value was -0.224. For GAGGGGGA, the “PBM E-score” value was -0.277. ATACGAAC was tested, and the “PBM E-score” value was 0.175. With AGCACCCA the “PBM E-score” value was -0.176. For AGTTCCTA, the “PBM E-score” value was 0.075. CCGTCAGA was tested, and the “PBM E-score” value was -0.332. For CCGCCGGC, the “PBM E-score” value was -0.218. ACTGAAAC was tested, and the “PBM E-score” value was 0.13. In the case of CTTTCCCC, the “PBM E-score” value is reported as -0.128. In the case of ACACAAAA, the “PBM E-score” value is reported as 0.305. AGCTGCTG was tested, and the “PBM E-score” value was -0.158. In the case of ATGTTGTA, the “PBM E-score” value is reported as 0.406. With ACTGTGTG the “PBM E-score” value was 0.128. For AACCTAGT, the “PBM E-score” value was -0.0074. For ATTTTTAC, the “PBM E-score” value was 0.368. In the case of ACAGTAGT, the “PBM E-score” value is reported as -0.0296. CGTCTATA was tested, and the “PBM E-score” value was -0.0303. CACGACCC was tested, and the “PBM E-score” value was -0.031. In the case of GCGTAGAA, the “PBM E-score” value is reported as 0.313. In the case of GGAAAGGA, the “PBM E-score” value is reported as -0.209. AAGTGTGT was tested, and the “PBM E-score” value was 0.303. With GACCTAAC the “PBM E-score” value was -0.00144. In the case of AACGCCGG, the “PBM E-score” value is reported as -0.111. CTAAACGA was tested, and the “PBM E-score” value was 0.0213. For CTTCTCGA, the “PBM E-score” value was 0.0282. In the case of ATCTGGTG, the “PBM E-score” value is reported as -0.123. For CATATAGA, the “PBM E-score” value was 0.183. ACGCGATC was tested, and the “PBM E-score” value was 0.299. With ATGCCCAA the “PBM E-score” value was -0.137. GAGACACC was tested, and the “PBM E-score” value was -0.137. AGTCTGAT was tested, and the “PBM E-score” value was -0.12. In the case of CGAGGACA, the “PBM E-score” value is reported as -0.168. In the case of GCCGATGA, the “PBM E-score” value is reported as -0.321. GGCTTCAC was tested, and the “PBM E-score” value was -0.283. TAATCACA was tested, and the “PBM E-score” value was 0.221. For ACGAAAGC, the “PBM E-score” value was -0.00153. In the case of ATGAACCG, the “PBM E-score” value is reported as -0.043. With CCCCGAAA the “PBM E-score” value was -0.0303. ACCTTAAG was tested, and the “PBM E-score” value was -0.14. With AATCGTCG the “PBM E-score” value was -0.121. CGACCCCC was tested, and the “PBM E-score” value was -0.311. GAGGTCAC was tested, and the “PBM E-score” value was -0.239. ACCGGTGG was tested, and the “PBM E-score” value was -0.44. In the case of GGACTCAC, the “PBM E-score” value is reported as -0.291. For CCACAGAC, the “PBM E-score” value was -0.178. In the case of AATGACCG, the “PBM E-score” value is reported as -0.213. For CCGTCGAC, the “PBM E-score” value was -0.122. For CCCCAGGA, the “PBM E-score” value was -0.24. GCTGATAC was tested, and the “PBM E-score” value was -0.113. ACGTTGAC was tested, and the “PBM E-score” value was 0.235. For AGAAGCTA, the “PBM E-score” value was -0.0858. For CAAGGCGG, the “PBM E-score” value was -0.0686. In the case of ATACCCAA, the “PBM E-score” value is reported as 0.0932. With GCAGGTAA the “PBM E-score” value was 0.16. With GTCCCCAA the “PBM E-score” value was -0.225. For AATGGCAC, the “PBM E-score” value was -0.204. ACACGCCT was tested, and the “PBM E-score” value was 0.374. For CTCGCGCA, the “PBM E-score” value was -0.164. With GTGGTAGA the “PBM E-score” value was -0.185. For AATGCGCG, the “PBM E-score” value was 0.197. With ATCTGCTA the “PBM E-score” value was 0.0607. GTTCTAAA was tested, and the “PBM E-score” value was 0.0256. With CGGAGTTA the “PBM E-score” value was -0.00265. In the case of AACACTTG, the “PBM E-score” value is reported as -0.00058. With GCCTACAA the “PBM E-score” value was 0.0587. For CCCCGAGA, the “PBM E-score” value was -0.19. For TCGAGGAA, the “PBM E-score” value was -0.16. For CGTCCGCA, the “PBM E-score” value was -0.0892. With ACGTTTCC the “PBM E-score” value was -0.104. With GATGATTA the “PBM E-score” value was 0.116. For CGCTCCAA, the “PBM E-score” value was -0.172.
